Data: patent US20220056094A1 (JIANGSU HENGRUI MEDICINE, published 2022)

T1: high-affinity receptor IL-2Rα/β/γ on CTLL2 cells (mouse-derived cell line) (mouse, UniProt P01590 22-268; P16297 27-539; P34902 23-369)
T1 sequence (looked up) 1: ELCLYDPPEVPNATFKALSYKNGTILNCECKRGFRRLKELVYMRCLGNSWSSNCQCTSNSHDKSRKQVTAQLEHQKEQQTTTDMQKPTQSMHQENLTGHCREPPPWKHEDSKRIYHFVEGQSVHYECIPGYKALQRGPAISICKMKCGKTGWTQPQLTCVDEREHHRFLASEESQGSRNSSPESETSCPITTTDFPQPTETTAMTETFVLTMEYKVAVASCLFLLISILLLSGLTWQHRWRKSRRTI
T1 sequence (looked up) 2: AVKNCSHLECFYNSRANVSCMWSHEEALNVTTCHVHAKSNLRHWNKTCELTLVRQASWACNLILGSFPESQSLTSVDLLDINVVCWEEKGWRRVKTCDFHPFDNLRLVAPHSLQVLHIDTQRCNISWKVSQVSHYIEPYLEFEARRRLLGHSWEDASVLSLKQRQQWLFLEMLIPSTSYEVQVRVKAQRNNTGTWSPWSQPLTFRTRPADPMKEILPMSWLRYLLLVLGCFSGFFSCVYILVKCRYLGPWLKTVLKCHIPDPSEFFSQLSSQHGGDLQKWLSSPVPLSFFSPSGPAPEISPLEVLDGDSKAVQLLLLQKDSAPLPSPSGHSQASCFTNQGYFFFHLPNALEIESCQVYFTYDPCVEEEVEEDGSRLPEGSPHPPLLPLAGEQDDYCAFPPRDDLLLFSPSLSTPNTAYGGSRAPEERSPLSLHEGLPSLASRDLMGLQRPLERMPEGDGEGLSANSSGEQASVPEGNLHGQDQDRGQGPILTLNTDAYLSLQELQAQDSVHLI
T1 sequence (looked up) 3: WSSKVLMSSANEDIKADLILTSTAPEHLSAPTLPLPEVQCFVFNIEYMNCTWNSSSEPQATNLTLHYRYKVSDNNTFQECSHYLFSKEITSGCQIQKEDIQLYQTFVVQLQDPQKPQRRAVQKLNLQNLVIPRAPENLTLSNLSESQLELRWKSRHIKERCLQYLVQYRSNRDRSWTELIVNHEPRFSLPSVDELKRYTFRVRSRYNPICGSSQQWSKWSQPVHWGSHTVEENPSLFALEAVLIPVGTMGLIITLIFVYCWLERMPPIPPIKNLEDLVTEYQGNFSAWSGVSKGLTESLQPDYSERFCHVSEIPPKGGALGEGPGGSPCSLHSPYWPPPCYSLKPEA

T2: medium-affinity receptor IL-2Rβ/γ on human cells (Mo7e cell line; human CD8+T and NK cells) (human, UniProt P14784 27-551; P31785 23-369)
T2 sequence (looked up) 1: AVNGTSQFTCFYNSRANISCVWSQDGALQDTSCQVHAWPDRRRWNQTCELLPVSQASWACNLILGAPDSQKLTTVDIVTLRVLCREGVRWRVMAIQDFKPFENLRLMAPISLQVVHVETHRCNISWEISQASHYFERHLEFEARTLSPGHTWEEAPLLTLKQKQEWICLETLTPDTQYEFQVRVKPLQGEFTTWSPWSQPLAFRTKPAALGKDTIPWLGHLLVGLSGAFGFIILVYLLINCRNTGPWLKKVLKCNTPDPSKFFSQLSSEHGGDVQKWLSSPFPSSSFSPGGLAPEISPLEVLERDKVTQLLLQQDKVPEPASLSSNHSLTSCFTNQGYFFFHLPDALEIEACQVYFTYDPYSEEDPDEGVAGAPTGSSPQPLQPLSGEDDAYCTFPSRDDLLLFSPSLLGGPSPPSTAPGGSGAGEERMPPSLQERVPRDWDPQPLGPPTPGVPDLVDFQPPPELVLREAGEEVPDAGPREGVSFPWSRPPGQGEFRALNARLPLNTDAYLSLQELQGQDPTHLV
T2 sequence (looked up) 2: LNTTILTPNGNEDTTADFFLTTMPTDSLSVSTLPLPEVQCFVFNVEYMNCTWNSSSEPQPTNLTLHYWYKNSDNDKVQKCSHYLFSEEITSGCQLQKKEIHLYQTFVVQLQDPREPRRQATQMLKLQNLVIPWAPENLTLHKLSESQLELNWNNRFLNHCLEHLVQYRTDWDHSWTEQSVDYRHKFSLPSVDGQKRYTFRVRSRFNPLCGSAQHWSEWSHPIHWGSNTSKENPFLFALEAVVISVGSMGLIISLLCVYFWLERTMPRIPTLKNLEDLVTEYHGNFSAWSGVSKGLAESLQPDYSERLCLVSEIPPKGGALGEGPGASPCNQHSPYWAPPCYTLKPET

T3: IL-2 receptor IL-2Rα/β/γ on human peripheral blood Treg cells (human, UniProt P01589 22-272; P14784 27-551; P31785 23-369)
T3 sequence (looked up) 1: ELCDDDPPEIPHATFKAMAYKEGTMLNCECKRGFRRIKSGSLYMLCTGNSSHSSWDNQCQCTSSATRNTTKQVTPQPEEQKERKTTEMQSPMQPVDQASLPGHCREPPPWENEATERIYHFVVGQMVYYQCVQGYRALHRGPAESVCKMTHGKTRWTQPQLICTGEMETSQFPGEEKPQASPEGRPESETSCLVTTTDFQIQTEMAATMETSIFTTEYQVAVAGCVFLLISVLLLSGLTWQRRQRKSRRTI
T3 sequence (looked up) 2: T2 sequence (looked up) 1
T3 sequence (looked up) 3: T2 sequence (looked up) 2

T4: his-tagged human IL-2Rα recombinant protein (SinoBiological, Cat #10165-H08H) (human, UniProt P01589 22-213)
T4 construct: Bought protein; also called IL-2Rα (His Tag)
T4 sequence: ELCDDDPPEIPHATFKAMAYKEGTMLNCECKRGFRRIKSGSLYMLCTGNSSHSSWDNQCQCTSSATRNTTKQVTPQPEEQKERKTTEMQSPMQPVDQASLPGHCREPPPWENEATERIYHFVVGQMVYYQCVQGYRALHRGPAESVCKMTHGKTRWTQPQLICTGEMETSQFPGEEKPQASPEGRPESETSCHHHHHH

B1: wild type human IL-2 (ligand)
chain: not shown
notes: Carries C125, whereas the variants carry C125A; also called IL-2-WT; IL-2 (WT)
B2: IL-2Rβ/γ-Fc heterodimer (IL-2Rβ-Fc-hole with IL-2Rγ-Fc-knob) (Fc fusion)
chain 1: AVNGTSQFTCFYNSRANISCVWSQDGALQDTSCQVHAWPDRRRWNQTCELLPVSQASWACNLILGAPDSQKLTTVDIVTLRVLCREGVRWRVMAIQDFKPFENLRLMAPISLQVVHVETHRCNISWEISQASHYFERHLEFEARTLSPGHTWEEAPLLTLKQKQEWICLETLTPDTQYEFQVRVKPLQGEFTTWSPWSQPLAFRTKPAALGKDTGAQ[human IgG1 Fc with changes not spelt out]
chain 2: LNTTILTPNGNEDTTADFFLTTMPTDSLSVSTLPLPEVQCFVFNVEYMNCTWNSSSEPQPTNLTLHYWYKNSDNDKVQKCSHYLFSEEITSGCQLQKKEIHLYQTFVVQLQDPREPRRQATQMLKLQNLVIPWAPENLTLHKLSESQLELNWNNRFLNHCLEHLVQYRTDWDHSWTEQSVDYRHKFSLPSVDGQKRYTFRVRSRFNPLCGSAQHWSEWSHPIHWGSNTSKENPFLFALEAGAQ[human IgG1 Fc with changes not spelt out]
notes: Co-expressed in HEK293 cells and purified with Protein A and Superdex 200

How the values were obtained:
[1] = target: T1, high-affinity receptor IL-2Rα/β/γ on …; assay: cell-based or functional assay
[2] = target: T1, high-affinity receptor IL-2Rα/β/γ on …; assay: cell-based or functional assay; remark: listed apart in the source
[3] = target: T2, medium-affinity receptor IL-2Rβ/γ on …; assay: cell-based or functional assay
[4] = target: T1, high-affinity receptor IL-2Rα/β/γ on …; assay: cell-based or functional assay; remark: listed apart in the source
[5] = target: T3, IL-2 receptor IL-2Rα/β/γ on human …; assay: cell-based or functional assay
[6] = target: T2, medium-affinity receptor IL-2Rβ/γ on …; assay: cell-based or functional assay; remark: listed apart in the source
[7] = target: T2, medium-affinity receptor IL-2Rβ/γ on …; assay: cell-based or functional assay; remark: listed apart in the source
[8] = target: T4, his-tagged human IL-2Rα recombinant …; assay: ELISA, his-tagged IL-2Rα coated, HRP anti-IL-2 polyclonal detection
Experimental: 96-well microtiter plate was coated with 2 μg/mL his-tagged IL-2Rα recombinant protein (SinoBiological, Cat #10165-H08H), and incubated overnight at 4° C. The plate was washed with washing solution for three times, 250 μl per well. For each time of washing, the plate was shaken for 10 seconds to ensure sufficient washing. 200 μl/well blocking solution was added and incubated at room temperature for 2 hours. The plate was washed with washing solution for three times, 250 μl per well. For each time of washing, the plate was shaken for 10 seconds to ensure sufficient washing. […] The plate was incubated for 1 hour at room temperature. The plate was washed with washing solution for three times, 250 μl per well. […] The plate was incubated for 1 hour at room temperature. The plate was washed with washing solution for three times, 250 μl per well. 100 μl TMB was added to each well, and the reaction was performed for 15 minutes in the dark. 50 μl of 0.16 M sulfuric acid was added to each well.

[9] = target: T4, his-tagged human IL-2Rα recombinant …; assay: BLI (Octet RED96e), His-tagged IL-2Rα on HIS1K sensor; column printed as 'affinity (nM)'
wild type human IL-2 = target: B1; assay: SPR (Biacore), IL-2Rβ/γ-Fc captured on Protein A chip, 1:1 model
Experimental: The Protein A sensor chip (GE, Cat #29127556) of the Biacore instrument (Biacore T200, GE) was used to capture IL-2Rβ/γ-Fc, wherein IL-2Rβ/γ-Fc was diluted with 1×HBS-EP to 1 μg/mL, and flowed at a flow rate of 10 μL/min for 30 seconds. […] The Biacore instrument (Biacore X100, GE) was used to detect the reaction in real time, to obtain association and dissociation curves. After each cycle of dissociation was completed, the chip was washed and regenerated with 10 mM Gly-HCl pH 1.5.

relative biological activity (CTLL2 cell proliferation) [1] | EC50 (CTLL2 cell proliferation) [2] | relative biological activity (CTLL2 cell proliferation) [2] | EC50 (Mo7e cell proliferation) [3] | relative biological activity (Mo7e cell proliferation) [3] | EC50 (STAT5 phosphorylation in CTLL2 cells) [4] | relative biological activity (STAT5 phosphorylation in CTLL2 cells) [4] | EC50 (STAT5 phosphorylation in human Treg cells) [5] | relative biological activity (STAT5 phosphorylation in human Treg cells) [5] | EC50 (STAT5 phosphorylation in human CD8+T cells) [6] | relative activity (STAT5 phosphorylation in human CD8+T cells) [6] | EC50 (STAT5 phosphorylation in human NK cells) [7] | relative activity (STAT5 phosphorylation in human NK cells) [7] | EC50 [8] | Kd [9] | Kd (wild type human IL-2) | koff (wild type human IL-2) | kon (wild type human IL-2) | Binder
100% | 0.053 nM | 100% | 2.44 nM | 100% | 0.01 nM | 100% | 0.00046 nM | 100% | 2.32 nM | 100% | 0.48 nM | 100% | 0.5 nM | 7.83 nM |  |  |  | B1
 |  |  |  |  |  |  |  |  |  |  |  |  |  |  | 0.257 nM | 0.00024 s⁻¹ | 936000 M⁻¹ s⁻¹ | B2

Where two headings read alike, the source gives them in different places.
